Measurements reported in PubChem BioAssay AID588342 (National Center for Advancing Translational Sciences (NCATS), 2011).
Out of some 360,000 compounds screened, about 25,000 (6.9%) were called active. The inconclusive results got no clear call from the source; some entries with a clear call stand among them for comparison. Calls follow the shape of the dose curve; as a rule, active = well fitted inhibition curve with a large enough effect; inconclusive = small, poorly fitted or top-dose-only effect; inactive = flat fitted curve, though single readings scatter. Potencies beside an inconclusive call are fits to weak or partial responses and may not hold up.

Molecular target: Luciferin 4-monooxygenase (Photinus pyralis) (UniProt P08659)
Assay: qHTS profiling assay for firefly luciferase inhibitor/activator using purifed enzyme and Km concentrations of substrates (counterscreen for miR-21 project); also: nearly all actives have a fitted effect of over 55% in size;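 as to activity change, negative = inhibition: plate controls were vehicle for no effect and reference inhibitor for full effect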
Conditions: purified FLuc, luminescence inhibition; series mostly up to 57.5 µM; activity change, negative = inhibition: at the top concentration
Procedure, shortened: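 Biochemical qHTS of compounds, final roughly 60 µM downward over six points, against 10 nM purified firefly luciferase using Km concentrations of substrates (10 uM D-luciferin, 10 uM ATP) in Tris acetate pH 7.5 buffer; luminescence output.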
Potency is read from the fitted curve at half-maximal effect; tags tell the direction and shape of the fitted curve.

Chain of UniProt P08659 (P08659 whole entry, looked up): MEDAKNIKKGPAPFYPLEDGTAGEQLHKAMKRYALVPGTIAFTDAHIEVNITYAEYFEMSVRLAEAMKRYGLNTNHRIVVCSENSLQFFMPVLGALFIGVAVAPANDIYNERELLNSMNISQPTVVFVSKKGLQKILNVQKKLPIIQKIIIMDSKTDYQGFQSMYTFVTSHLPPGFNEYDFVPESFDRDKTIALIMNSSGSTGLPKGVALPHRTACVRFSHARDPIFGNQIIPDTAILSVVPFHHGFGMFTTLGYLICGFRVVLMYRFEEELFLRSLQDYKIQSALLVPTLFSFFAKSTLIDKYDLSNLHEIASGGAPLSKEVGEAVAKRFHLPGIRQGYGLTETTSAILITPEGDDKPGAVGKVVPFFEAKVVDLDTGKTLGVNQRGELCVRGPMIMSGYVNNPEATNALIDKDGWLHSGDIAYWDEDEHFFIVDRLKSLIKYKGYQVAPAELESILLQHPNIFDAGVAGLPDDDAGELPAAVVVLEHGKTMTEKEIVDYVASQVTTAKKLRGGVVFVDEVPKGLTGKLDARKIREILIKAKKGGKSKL

| SMILES | Potency | activity change, negative = inhibition |
| --- | --- | --- |
| c1ccc2c(c1)nc1n2CC2CON(C3CCCCC3)C12 (configuration not stated) | inconclusive: 26.9 µM [inhibitor, partial curve, poor fit] | – |
| O=C(CCN1C(=O)/C(=C/c2ccccc2Cl)SC1=S)NC1=NCCS1 | inconclusive: 30.1 µM [inhibitor, partial curve, poor fit] | – |
| O=C(c1cc(COc2ccc(F)cc2F)on1)N1CC2C[C@@H]3CC1C[C@H](C2)C3 | active: 16.9 µM | – |
| COc1ccc2cc(C(=O)N3CCc4ccccc43)[nH]c2c1 | active: 0.953 µM | – |
| CN(C(=O)CN1C(=O)S/C(=C\c2ccccc2Cl)C1=O)C1CCS(=O)(=O)C1 (configuration not stated) | inconclusive: 21.3 µM [inhibitor, partial curve] | – |
| O=C(Nc1ccc(Cl)c(Cl)c1)c1cccnc1 | inconclusive: 37.9 µM [inhibitor, single point] | – |
| COc1cccc(NC(=S)N2CCC(Cc3ccccc3)CC2)c1 | inconclusive: 21.3 µM [inhibitor, partial curve, poor fit] | – |
| O=C(NC1=NCCS1)c1cc2ccccc2o1 | active: 1.2 µM | – |
| CC(=O)NC1(C(F)(F)F)C(=O)Nc2c1c(=O)[nH]c(=O)n2CCc1ccccc1 (configuration not stated) | – | inactive: -0.638% |
| COc1ccc(-c2cc(C(F)(F)F)n3ncc(C(=O)N4CCCCC4c4cccnc4)c3n2)cc1 (configuration not stated) | – | inactive: -4.58% |
| COc1ccc(C/C(C)=N/NC(=S)Nc2ccccc2)cc1 | inconclusive: 23.9 µM [inhibitor, single point] | – |
| COc1ccc(-n2cc(CN3CCCC3)c(-c3cccc(F)c3)n2)cc1 | inconclusive: 26.9 µM [inhibitor, partial curve, poor fit] | – |
| Cn1cc(C(=O)N2CCc3ccccc32)cn1 | inconclusive: 23.9 µM [inhibitor, single point] | – |
| O=[N+]([O-])c1ccc(O)c(NC(=S)Nc2ccccc2)c1 | inconclusive: 21.3 µM [inhibitor, partial curve] | – |
| O=C1C(c2ccncc2)=C(O)c2ccccc21 | active: 2.13 µM | – |
| COc1cc(C(C2C(=O)CC(C)(C)CC2=O)C2C(=O)CC(C)(C)CC2=O)ccc1O | inconclusive: 19 µM [inhibitor, partial curve] | – |
| CCOC(=O)NC(=S)Nc1c(C)n(C)n(-c2ccccc2)c1=O | – | inactive: 0.0206% |
| O=C(/C=C/c1ccc(Br)o1)Nc1nccs1 | inconclusive: 8.49 µM [inhibitor, partial curve] | – |
| Cc1ccc(CNC(=O)C2CCCN(c3nn4cc(-c5ccc(C)cc5)nc4s3)C2)cc1 (configuration not stated) | inconclusive: 7.57 µM [inhibitor, partial curve, poor fit] | – |
| O=[N+]([O-])c1cc(Cl)c(O)c2ncccc12 | inconclusive: 9.53 µM [inhibitor, partial curve, poor fit] | – |
| O=C(NC(=S)Nc1ncccn1)c1ccccc1Cl | inconclusive: 23.9 µM [inhibitor, single point] | – |
| CCOC(=O)c1cc2c(=O)n3ccccc3nc2n(CC2CCCO2)c1=NC(=O)c1ccccc1OCC (configuration not stated) | – | inactive: 2.14% |
| Clc1ccc(SCc2csc(N3CCOCC3)n2)cc1 | inconclusive: 23.9 µM [inhibitor, partial curve] | – |
| COc1ccc(-c2ccc(-c3noc(C4CCCCC4)n3)c(OC)n2)cc1 | inconclusive: 12 µM [inhibitor, partial curve] | – |

| SMILES | Potency | activity change, negative = inhibition |
| --- | --- | --- |
| Cc1c(NC(=O)C(C)(C)C)cccc1-c1nc2ccccc2s1 | active: 4.78 µM | – |
| Cc1cc(C)n(C(=O)CNC(=O)c2cccc(Br)c2)n1 | inconclusive: 37.9 µM [inhibitor, partial curve, poor fit] | – |
| COc1cc(CNc2ccccc2SC)ccc1O | inconclusive: 23.9 µM [inhibitor, partial curve, poor fit] | – |
| Cc1ccnc(NCc2ccc(Cl)cc2)c1 | inconclusive: 33.8 µM [inhibitor, partial curve, poor fit] | – |
| CCOC(=O)C1(CC2CCCCO2)CCN(C(=O)Nc2cccc(SC)c2)CC1 (configuration not stated) | inconclusive: 23.9 µM [inhibitor, single point] | – |
| CCc1ccc(NC(=O)CSc2nc3c([nH]c4ccccc43)c(=O)n2C)cc1 | – | inactive: 0.224% |
| CCCCN(CC)c1nc(-c2ccncc2)nc2ccccc12 | – | inactive: -1.13% |
| COc1ccc(C(=O)Nc2ccccc2C(=O)NC(Cc2ccc(O)cc2)C(=O)NNC(=O)c2ccncc2)cc1 (configuration not stated) | active: 12 µM | – |
| COc1ccc2c(c1OC)C(=O)N(c1ccccn1)C2 | active: 10.7 µM | – |
| CCCOc1ccc(C(=O)Nc2cc(-c3nc4ccccc4[nH]3)ccc2C)cc1 | inconclusive: 9.53 µM [inhibitor, partial curve] | – |
| Cc1nc2c(C)cccc2cc1C(=O)N/N=C/c1ccc(O)cc1 | inconclusive: 12 µM [inhibitor, single point] | – |
| Cc1[nH]cnc1C(=O)N/N=C/c1c(Cl)cccc1Cl | active: 15.1 µM | – |
| Cc1ccc(C(=O)NCc2ccccn2)c(Cl)c1 | inconclusive: 19 µM [inhibitor, partial curve, poor fit] | – |
| O=C(COC(=O)c1ccc(O)cc1O)c1ccc(Cl)cc1 | active: 16.9 µM | – |
| COc1cccc(CNC(=O)c2cc3cc(C)ccc3n2C)c1 | – | inactive: -2.36% |
| Cc1ccc(OCC(=O)N/N=C\c2ccco2)c(C)c1 | inconclusive: 21.3 µM [inhibitor, single point] | – |
| Cc1c(C(=O)Nc2ccc3c(c2)OCCO3)sc2ncnc(N3CCCCC3C)c12 (configuration not stated) | active: 10.7 µM | – |
| O=C(O)c1ccccc1N/N=C/c1cc(Br)cc(Br)c1O | active: 7.57 µM | – |
| CCCCC(CC)CNC(=O)c1ccc(Cn2c(=O)[nH]c3cc(OC)c(OC)cc3c2=O)cc1 (configuration not stated) | – | inactive: 2.6% |
| COc1ccccc1-c1cc(C(=O)NC(C)C)no1 | active: 13.5 µM | – |
| CCC(C)NC(=O)/C=C1\Sc2ccccc2NC1=O (configuration not stated) | inconclusive: 8.49 µM [inhibitor, partial curve] | – |
| CC(C)OC(=O)c1cccc2c1C(=O)c1ccccc1-2 | inconclusive: 26.9 µM [inhibitor, single point] | – |
| Cc1coc2c1c(C)cc1oc(=O)c(CC(=O)NCCCCCC(=O)O)c(C)c12 | inconclusive: 16.9 µM [inhibitor, partial curve] | – |
